This passage reports binding signal results from PMC12820563, “FoxP3 forms a head-to-head dimer in vivo and stabilizes its multimerization on adjacent microsatellites”.

The other results are listed elsewhere or left out.

The target in this assay is T1, MBP-FoxP1dN (Mus musculus, UniProt P58462 326-579).
T1 sequence: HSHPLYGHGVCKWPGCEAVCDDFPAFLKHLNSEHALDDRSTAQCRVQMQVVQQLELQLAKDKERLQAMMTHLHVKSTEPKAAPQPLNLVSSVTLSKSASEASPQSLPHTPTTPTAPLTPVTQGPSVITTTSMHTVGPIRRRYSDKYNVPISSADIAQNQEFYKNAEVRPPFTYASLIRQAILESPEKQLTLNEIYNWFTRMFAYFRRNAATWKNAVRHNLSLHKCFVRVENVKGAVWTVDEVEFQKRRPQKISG
Briefly: PD-seq (MBP pull-down with sequencing); 20 mM Tris-HCl pH 7.5, 100 mM NaCl, 1.5 mM MgCl2, 0.4 uM protein, 0.1 uM dsDNA library, 30 min, room temperature, amylose pull-down; high values mean tight binding. Conditions: protein: recombinant; tags: His6-MBP; chain copies: 2; dsDNA, one strand shown. A digest of the protocol: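 E. coli-expressed mouse FoxP3 or FoxP1 fragment, N-terminus removed and tagged with His6-MBP, was used at 0.4 µM against 0.1 µM of a Klenow-filled degenerate double-stranded DNA library. After 30 min at room temperature in Tris pH 7.5 buffer with NaCl and MgCl2, complexes were pulled down on amylose resin and washed three times. Binding is pull-down over input reads-per-million enrichment from pooled replicates of the proteinase K-released, PCR-barcoded, Illumina-sequenced DNA.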
Regarding “GATGATTGTTCTCCCAGCTGATGAATTGAGTAGCTCGAGTAAACAAATTTTCCTAATCTTTCTGTTCAAGCGCCATCTAC”, the binding signal was 0.83 RPM ratio (pull-down/input).

With “GATGATTGTTCTCCCAGCTGATGAATTCGGTAGCTCGAGTAAACAAATTTTCCTAATCTTTCTGTTCAAGCGCCATCTAC”, the binding signal is 0.783 RPM ratio (pull-down/input).

As to “GATGATTGTTCTCCCAGCTGATGAATTTCTAGCATCGAGTAAACAAATTTTCCTAATCTTTCTGTTCAAGCGCCATCTAC”, the binding signal was 1.06 RPM ratio (pull-down/input).

With “GATGATTGTTCTCCCAGCTGATGAATTTAAGCATTCGAGTAAACAAATTTTCCTAATCTTTCTGTTCAAGCGCCATCTAC”, the binding signal was 1.14 RPM ratio (pull-down/input).

For “GATGATTGTTCTCCCAGCTGATGAATTTGGAAGCTCGAGTAAACAAATTTTCCTAATCTTTCTGTTCAAGCGCCATCTAC”, the binding signal was 0.812 RPM ratio (pull-down/input).

As for “GATGATTGTTCTCCCAGCTGATGAATTACTGTCGTCGAGTAAACAAATTTTCCTAATCTTTCTGTTCAAGCGCCATCTAC”, the binding signal was 1.07 RPM ratio (pull-down/input).

“GATGATTGTTCTCCCAGCTGATGAATTCTAGTGATCGAGTAAACAAATTTTCCTAATCTTTCTGTTCAAGCGCCATCTAC”: the binding signal was 0.942 RPM ratio (pull-down/input).

As to “GATGATTGTTCTCCCAGCTGATGAATTTTTGGTTTCGAGTAAACAAATTTTCCTAATCTTTCTGTTCAAGCGCCATCTAC”, the binding signal is 0.984 RPM ratio (pull-down/input).

Regarding “GATGATTGTTCTCCCAGCTGATGAATTGGAAGTATCGAGTAAACAAATTTTCCTAATCTTTCTGTTCAAGCGCCATCTAC”, the binding signal is 0.972 RPM ratio (pull-down/input).

On to “GATGATTGTTCTCCCAGCTGATGAATTCACAAATTCGAGTAAACAAATTTTCCTAATCTTTCTGTTCAAGCGCCATCTAC”, for which the binding signal was 1.01 RPM ratio (pull-down/input).

Take “GATGATTGTTCTCCCAGCTGATGAATTGGCTCTTTCGAGTAAACAAATTTTCCTAATCTTTCTGTTCAAGCGCCATCTAC”: the binding signal was 0.951 RPM ratio (pull-down/input).

Consider “GATGATTGTTCTCCCAGCTGATGAATTTTGTTTATCGAGTAAACAAATTTTCCTAATCTTTCTGTTCAAGCGCCATCTAC”, for which the binding signal is 2.61 RPM ratio (pull-down/input).

Turning to “GATGATTGTTCTCCCAGCTGATGAATTTATATACTCGAGTAAACAAATTTTCCTAATCTTTCTGTTCAAGCGCCATCTAC”, the binding signal is 1.16 RPM ratio (pull-down/input).

On to “GATGATTGTTCTCCCAGCTGATGAATTGCGGAATTCGAGTAAACAAATTTTCCTAATCTTTCTGTTCAAGCGCCATCTAC”, for which the binding signal is 1.1 RPM ratio (pull-down/input).

Regarding “GATGATTGTTCTCCCAGCTGATGAATTGCGCCGGTCGAGTAAACAAATTTTCCTAATCTTTCTGTTCAAGCGCCATCTAC”, the binding signal is 0.953 RPM ratio (pull-down/input).

For “GATGATTGTTCTCCCAGCTGATGAATTTGGCTGATCGAGTAAACAAATTTTCCTAATCTTTCTGTTCAAGCGCCATCTAC”, the binding signal is 0.876 RPM ratio (pull-down/input).

Consider “GATGATTGTTCTCCCAGCTGATGAATTAATACCATCGAGTAAACAAATTTTCCTAATCTTTCTGTTCAAGCGCCATCTAC”, for which the binding signal was 1.11 RPM ratio (pull-down/input).

In the case of “GATGATTGTTCTCCCAGCTGATGAATTCGTACCATCGAGTAAACAAATTTTCCTAATCTTTCTGTTCAAGCGCCATCTAC”, the binding signal is 0.934 RPM ratio (pull-down/input).

With “GATGATTGTTCTCCCAGCTGATGAATTGCACCCTTCGAGTAAACAAATTTTCCTAATCTTTCTGTTCAAGCGCCATCTAC”, the binding signal was 1.16 RPM ratio (pull-down/input).

“GATGATTGTTCTCCCAGCTGATGAATTCAATCCGTCGAGTAAACAAATTTTCCTAATCTTTCTGTTCAAGCGCCATCTAC”: the binding signal is 0.914 RPM ratio (pull-down/input).

Regarding “GATGATTGTTCTCCCAGCTGATGAATTCCATCGTTCGAGTAAACAAATTTTCCTAATCTTTCTGTTCAAGCGCCATCTAC”, the binding signal is 0.79 RPM ratio (pull-down/input).

Regarding “GATGATTGTTCTCCCAGCTGATGAATTCCGGGACTCGAGTAAACAAATTTTCCTAATCTTTCTGTTCAAGCGCCATCTAC”, the binding signal is 0.775 RPM ratio (pull-down/input).

With “GATGATTGTTCTCCCAGCTGATGAATTTCGGGACTCGAGTAAACAAATTTTCCTAATCTTTCTGTTCAAGCGCCATCTAC”, the binding signal is 0.769 RPM ratio (pull-down/input).

As for “GATGATTGTTCTCCCAGCTGATGAATTGCGGTGATCGAGTAAACAAATTTTCCTAATCTTTCTGTTCAAGCGCCATCTAC”, the binding signal is 1.06 RPM ratio (pull-down/input).

For the sequence “GATGATTGTTCTCCCAGCTGATGAATTCGTTAAGTCGAGTAAACAAATTTTCCTAATCTTTCTGTTCAAGCGCCATCTAC”, the binding signal is 0.908 RPM ratio (pull-down/input).

“GATGATTGTTCTCCCAGCTGATGAATTCTATGGGTCGAGTAAACAAATTTTCCTAATCTTTCTGTTCAAGCGCCATCTAC”: the binding signal was 0.857 RPM ratio (pull-down/input).

Regarding “GATGATTGTTCTCCCAGCTGATGAATTGTAGTAGTCGAGTAAACAAATTTTCCTAATCTTTCTGTTCAAGCGCCATCTAC”, the binding signal is 1.08 RPM ratio (pull-down/input).

For “GATGATTGTTCTCCCAGCTGATGAATTGTGTTGGTCGAGTAAACAAATTTTCCTAATCTTTCTGTTCAAGCGCCATCTAC”, the binding signal was 1.92 RPM ratio (pull-down/input).

In the case of “GATGATTGTTCTCCCAGCTGATGAATTGGTAGCGTCGAGTAAACAAATTTTCCTAATCTTTCTGTTCAAGCGCCATCTAC”, the binding signal is 0.907 RPM ratio (pull-down/input).

Consider “GATGATTGTTCTCCCAGCTGATGAATTAGCGTTTTCGAGTAAACAAATTTTCCTAATCTTTCTGTTCAAGCGCCATCTAC”, for which the binding signal was 1.13 RPM ratio (pull-down/input).

For the sequence “GATGATTGTTCTCCCAGCTGATGAATTGGGTATATCGAGTAAACAAATTTTCCTAATCTTTCTGTTCAAGCGCCATCTAC”, the binding signal is 0.951 RPM ratio (pull-down/input).

With “GATGATTGTTCTCCCAGCTGATGAATTTATCAGCTCGAGTAAACAAATTTTCCTAATCTTTCTGTTCAAGCGCCATCTAC”, the binding signal is 1.01 RPM ratio (pull-down/input).

Turning to “GATGATTGTTCTCCCAGCTGATGAATTCGGCTCTTCGAGTAAACAAATTTTCCTAATCTTTCTGTTCAAGCGCCATCTAC”, the binding signal was 0.806 RPM ratio (pull-down/input).

“GATGATTGTTCTCCCAGCTGATGAATTCATTAATTCGAGTAAACAAATTTTCCTAATCTTTCTGTTCAAGCGCCATCTAC”: the binding signal was 0.983 RPM ratio (pull-down/input).

Regarding “GATGATTGTTCTCCCAGCTGATGAATTCGGTAAGTCGAGTAAACAAATTTTCCTAATCTTTCTGTTCAAGCGCCATCTAC”, the binding signal is 0.945 RPM ratio (pull-down/input).

“GATGATTGTTCTCCCAGCTGATGAATTATGTATGTCGAGTAAACAAATTTTCCTAATCTTTCTGTTCAAGCGCCATCTAC”: the binding signal is 1.34 RPM ratio (pull-down/input).

For the sequence “GATGATTGTTCTCCCAGCTGATGAATTTAGATAGTCGAGTAAACAAATTTTCCTAATCTTTCTGTTCAAGCGCCATCTAC”, the binding signal is 1.01 RPM ratio (pull-down/input).

For “GATGATTGTTCTCCCAGCTGATGAATTCCTCTGATCGAGTAAACAAATTTTCCTAATCTTTCTGTTCAAGCGCCATCTAC”, the binding signal is 0.844 RPM ratio (pull-down/input).

Regarding “GATGATTGTTCTCCCAGCTGATGAATTGACTCGATCGAGTAAACAAATTTTCCTAATCTTTCTGTTCAAGCGCCATCTAC”, the binding signal was 0.903 RPM ratio (pull-down/input).

As for “GATGATTGTTCTCCCAGCTGATGAATTGATGGACTCGAGTAAACAAATTTTCCTAATCTTTCTGTTCAAGCGCCATCTAC”, the binding signal is 0.913 RPM ratio (pull-down/input).
